Test system: Escherichia coli
Assay: Growth of E. coli transformant on minimal medium plates containing PPT
Conditions: minimal medium plates containing 300 μg/ml PPT

CP(=O)(O)CCC(N)C(=O)O (stereo not shown) [PPT, phosphinothricin]
growth of transformant (pJS1) on PPT-containing medium: grew

Reference: patent USRE44962E1, “Genetically engineered plant cells and plants exhibiting resistance to glutamine synthetase inhibitors, DNA fragments and recombinants for use in the production of said cells and plants” (Bayer Cropscience N.V., priority 1986, dated 2014)
